From PubChem BioAssay AID1030 (National Center for Advancing Translational Sciences (NCATS), 2008)
The whole screen tested about 220,000 compounds, of which about 16,000 (7.3%) were called active. The inconclusive results got no clear call from the source; some entries with a clear call stand among them for comparison. Calls follow the shape of the dose curve; as a rule, active = well fitted inhibition curve with a large enough effect (not every such curve was filed as active); inconclusive = small, poorly fitted or top-dose-only effect, or another doubt; inactive = no such curve, though single readings can be large or run the other way. Potencies of inconclusive entries are left out as doubtful fits.

These compounds were tested against Aldehyde dehydrogenase 1A1 (Homo sapiens) (UniProt P00352) (assay: qHTS Assay for Inhibitors of Aldehyde Dehydrogenase 1 (ALDH1A1)). Conditions: Purified ALDH1A1, NADH fluorescence, propionaldehyde substrate; series mostly up to 75.3 µM.
UniProt P00352, sequence (P00352 whole entry, looked up): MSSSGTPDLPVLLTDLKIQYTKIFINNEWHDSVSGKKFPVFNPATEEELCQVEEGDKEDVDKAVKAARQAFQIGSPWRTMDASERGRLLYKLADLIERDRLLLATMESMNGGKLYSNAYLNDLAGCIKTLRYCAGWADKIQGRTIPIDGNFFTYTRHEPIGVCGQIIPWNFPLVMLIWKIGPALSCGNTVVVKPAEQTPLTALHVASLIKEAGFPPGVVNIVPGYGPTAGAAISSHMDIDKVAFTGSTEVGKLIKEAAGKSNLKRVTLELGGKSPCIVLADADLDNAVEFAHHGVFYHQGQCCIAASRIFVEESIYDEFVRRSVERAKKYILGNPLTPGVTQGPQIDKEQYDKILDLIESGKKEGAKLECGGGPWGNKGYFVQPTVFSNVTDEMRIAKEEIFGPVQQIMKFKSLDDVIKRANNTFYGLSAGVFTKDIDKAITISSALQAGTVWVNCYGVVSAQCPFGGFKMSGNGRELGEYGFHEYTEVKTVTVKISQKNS
Potency is read from the fitted curve at half-maximal effect; tags tell the direction and shape of the fitted curve.

SMILES | Potency
C[C@@H](C(=O)NCCF)[C@H]1C[C@]1(C)[C@H](NC(=O)OCc1ccccc1)c1ccccc1 | inconclusive [inhibitor, partial curve]
CCC(=NCCc1c(C)[nH]c2ccc(OC(F)(F)F)cc12)C1=C(O)CC(c2ccccc2)CC1=O (configuration not stated) | inactive
CC(=O)Nc1nc(C)c(Oc2ccc(C)cc2)c(=O)[nH]1 | inactive
COc1ccc(N2C(=O)CSC23CCC(C(C)(C)C)CC3)cc1 (configuration not stated) | inconclusive [inhibitor, single point]
CC(=O)Nc1cccc(NC(=O)CSc2nnnn2Cc2ccccc2)c1 | active: 12.6 µM
Cc1ccc(N(CC(N)=O)C2SC(=O)NC2=O)cc1 (configuration not stated) | inconclusive [inhibitor, single point]
Cn1cnc(S(=O)(=O)NCc2cccs2)c1 | inconclusive [inhibitor, single point]
CCCn1c(N)c(C(=O)CSc2nnc(-c3ccco3)n2Cc2ccccc2)c(=O)[nH]c1=O | inconclusive [inhibitor, single point]
COC(=O)Cc1ccc(NC(=S)NCC(C)C)cc1 | inconclusive [inhibitor, single point]
NCCC[C@@H](CC(=O)N[C@@H]1CCCC[C@H]1C(=O)N[C@H](CC(=O)N[C@@H](CCC(=O)O)CC(=O)O)Cc1ccccc1)NC(=O)C[C@H](CO)NC(=O)[C@@H]1CCCC[C@H]1N | inactive
Cc1ccc(C(=O)Nc2ccc3c(c2)OCO3)cc1 | inactive
CC(C)(C)c1ccc(/C=C/C(=O)NC2=NCCS2)cc1 | inactive
Cc1ccccc1C(=O)NC1CCN(Cc2nnnn2Cc2ccccc2)CC1 | inconclusive [inhibitor, single point]
CC(=O)Nc1ccc2ccc3cccc4ccc1c2c34 | inconclusive [inhibitor, single point]
Cc1nccc(-c2ccc3c(c2)OCO3)n1 | inconclusive [inhibitor, single point]
CN(C)c1ccc(/C=C/C(=O)c2ccccc2O)cc1 | inactive
O=C(NC(=S)N1CCN(C/C=C/c2ccccc2)CC1)c1ccc(Cl)nc1 | active: 17.8 µM
CCn1c(SCC(=O)NC2CCCCC2)nnc1-c1cc2cccc(OC)c2o1 | inconclusive [inhibitor, single point]
CCN(CC)c1ccc(NC(=S)NC(=O)c2ccco2)cc1 | active: 25.1 µM
CN(CCc1cn[nH]c1)C(=O)CC1C(=O)NCCN1Cc1ccccc1C(F)(F)F (configuration not stated) | inactive
Cn1c(=O)c2c(nc(N3CCCCCC3)n2Cc2cccc3ccccc23)n(C)c1=O | active: 0.891 µM
CC(C)Sc1nc2c(c(=O)[nH]c(=O)n2C)n1CCc1ccccc1 | inconclusive [inhibitor, full curve]
Cc1ccc(N2CC(C(=O)Nc3c(C)n(C)n(-c4ccccc4)c3=O)CC2=O)cc1 (configuration not stated) | inconclusive [inhibitor, single point]
CCOC(=O)C1CCN(S(=O)(=O)c2ccc(C)c(C)c2)CC1 | inactive

SMILES | Potency
COc1cccc(/C=N/NC(=O)c2c(C)nc3ccc(Br)cn23)c1O | inconclusive [inhibitor, single point]
O=C(CSc1nc(-c2ccccc2)cs1)NCc1ccco1 | active: 25.1 µM
O=C(COC(=O)C1CCN(C(=O)c2ccc(Cl)cc2)CC1)NC1CCS(=O)(=O)C1 (configuration not stated) | inactive
COC(=O)c1c(NC(=O)/C=C/C(=O)O)sc(C)c1-c1ccc(C(C)C)cc1 | active: 7.94 µM
CCN1C(=O)/C(=C/c2cn(C)nc2C)SC1=S | active: 3.98 µM
CCN1/C(=C/C=C/c2oc3ccc(-c4ccccc4)cc3[n+]2CC)Oc2ccc(-c3ccccc3)cc21 | inconclusive [inhibitor, single point]
Cn1ccnc1SCC(=O)Nc1cccc(C(F)(F)F)c1 | inconclusive [inhibitor, single point]
Cc1ccc(-c2nnc(N3CCN(S(C)(=O)=O)CC3)c3ccccc23)cc1 | inconclusive [inhibitor, full curve]
COC(=O)Nc1sc2c(c1C(=O)N1CCOCC1)CCC(C)C2 (configuration not stated) | inconclusive [inhibitor, single point]
Oc1ccc(N2CCN(c3nnnn3-c3ccccc3)CC2)cc1 | inconclusive [inhibitor, single point]
CC(C)(C)NC(=O)Nc1ccc2nccnc2c1 | inconclusive [inhibitor, partial curve]
CCOc1ccc(NCCC(=O)c2ccc3c(c2)OCO3)cc1 | active: 0.631 µM
O=C(CSc1nnnn1Cc1ccccc1)Nc1ccc2c(c1)OCCO2 | active: 8.91 µM
Cc1cc(C)c(C(=O)Cn2nc(C)c([N+](=O)[O-])c2C)cc1C | inactive
O=C(/C=C/c1ccc([N+](=O)[O-])cc1)NC1CC2CCC1C2 (configuration not stated) | inconclusive [inhibitor, single point]
Cn1nnc(NC(=S)NC(=O)c2ccco2)n1 | active: 3.55 µM
O=C(C1=C(O)C(=O)N(CCc2ccccc2)C1c1cccnc1)c1ccco1 (configuration not stated) | active: 17.8 µM
COc1cc(CNc2ccccc2SC)cc(OC)c1OC | inconclusive [inhibitor, single point]
O=C(CN1CCc2ccccc21)NC(c1ccccc1)c1ccccc1 | inconclusive [inhibitor, single point]
O=C(c1ccc(NC(=S)NCc2ccco2)cc1)N1CCCCC1 | active: 22.4 µM
CC(=O)Nc1ccc2nc(-c3cccs3)[nH]c2c1 | inconclusive [inhibitor, partial curve]
COCCn1c(=O)c(-c2cccs2)nc2cnc(N3CCOCC3)nc21 | inconclusive [inhibitor, partial curve]
Cc1ccc(/C=N/NC(=O)C2CCN(Cc3ccc(F)cc3Cl)CC2)o1 | inconclusive [inhibitor, single point]
